# The RNAGym collection of RNA variant scans (doi:10.7554/elife.90254)
# Read counts are not given, so values of variants with three or more changes are uncertain.
# B1: OR4K15 (parent)
# chain: GUUAACGGUCAUAGGCCAUGGAAACUAGGAGCACCAUUUCGCUGCCAGUGAAGAAAUGAACAAAGAAAAUCUGGGCCAGGCAGGCAUCAAAAGAAAUAGUCUUGCGCUCAACCAGAAAGUCUGUAAUCAUUUUAAGGGUA
# Variants of: B1
# Test: self-cleavage, relative activity (ratio to wild type); higher = more cleavage; in vitro, sequencing; the parent is a self-cleaving ribozyme
row,Variant,self-cleavage
1,A68G A78G A129G,0.06
2,U70A A92U A98U A116G A126G,1.92
3,G74A A91G U124G,0.06
4,G74U A96G U97C,0.02
5,A69G A82U U127A,0.23
6,A78G A91G A96G,0.2
7,A67G A110G A116U,0.07
8,U72C A89G U131C,0.07
9,A66G A69G A94G A135G,0.51
10,G75A A91G U122C,0.13
11,A66G A86G A110G,0.17
12,A67G A91G A95G A116G,1.04
13,G74A A94G A117G,0.16
14,U72A A82G G84A U100C U132C,0.01
15,A67G A94G U132A,1.74
16,A69G A91G U100C,2.06
17,A68G U72C A89U A90G,0.1
18,C77U A94G U102A,1.72
19,A66G A78U U124C,0.47
20,U72G A78G A89U A117G,0.23
21,G74A A95G U103A,0.12
22,A66U A67G G75C A96C,0.12
23,A67G A116U U124C,0.19
24,A66U A89G A90G A92G,0.31

row,Variant,self-cleavage
1,A68G G80U U102C A110G,0.02
2,A68G G115U U122C,0.04
3,A66G A92G A126G,0.91
4,A67G A90G U139C,1.43
5,U72C G79A A111U A126G,0.01
6,A68G U103C A114U,0.06
7,G73A U97C C105G A129U,0.01
8,A69U U87C U108C A118G,0.01
9,A68G G119A U122C,2.32
10,U70C A90G U124C,0.31
11,A66G A90U A96G U100C U122C,2.82
12,A68G U70C A126G,0.66
13,A66U C85U A94U U108C A118G,0.02
14,A67G U72C U102C,0.3
15,A68G A86G A94G,1.32
16,A68G U72C A95G U108A,0.02
17,A67G U122C A125G,0.3
18,A66G A111G A114G U122C,0
19,A66G U72A A129U,0.09
20,A66G A91C A117G,1.49
21,U72C U102A A118G,0.03
22,U72C U122G U132C,0.24
23,U72A A89G A114G,0.04
24,A68G A111G A118G,0.01

row,Variant,self-cleavage
1,A66G A69G U108A,0.05
2,A78G A86G A114G A116G,0.03
3,A66G A78C A89G,0.36
4,A67G A69G U103C,0.5
5,A69G A89G U139C,2.21
6,A68G A86G A125G,0.28
7,A68G U87A U132C,1.26
8,A66U A78G U103C A114U A134G U139C,0
9,U72C U97A A140G,0.32
10,A69G U72C U102C,0.35
11,C71U G74A U100C,0.29
12,A68C U102A U120A,1.68
13,U72C A94G A96G A126G,0.04
14,A67G A92G U103C U139C,0.94
15,C77A A96U A118U,0.54
16,A69G U103C U122A,1
17,A66G A67G A118G,1.14
18,A69C U87C U97G A116G,0.67
19,U72G A82G U100C U103G,0.01
20,U72A U87A U97C,0.16
21,U70C A110G A114G,0.03
22,A68G A116G U132C,0.84
23,A68G U70C A96G A116U,0.04
24,U72A G83A U132A,0.29

row,Variant,self-cleavage
1,A68G G83A A89C U122G,2.47
2,A66G C77U A140G,2.2
3,A67G A68G U102A,0.67
4,A66G A69G U108C A134G,0
5,U72C A82G A92U U120A,0.06
6,A68G A91G A116G,0.39
7,A66G A68G C113U A118U,0.06
8,U70A C121U A129G,2.17
9,A67G U87A A95C,0.83
10,A67G A98G U132C,1.17
11,U70C A78G A96G U103C A135G,0.11
12,A69G A98G G106A A110G G119A U122A,0.02
13,A66G A69U A110G,0.33
14,A66U A92G U122C U132C,1.45
15,A67G A92C A98G,0.18
16,A66U A116U U131C,0.03
17,A68G A78U A86G A110G A118G,0.03
18,U70A A92G U108C,0.02
19,A68G U97C U108C A135U,0
20,U72C A78G A111G U130C,0
21,C76A A78U U103C A114U,0
22,A68U U72C A89U,0.3
23,A69G A78C A114U,0.01
24,A68G U100C A110G A126G,0.12

row,Variant,self-cleavage
1,G74U A86U U122A,0.15
2,A66U U97A U122C,1.78
3,U70C A82G U122C U124A,0.11
4,A66G U72C U131C A135G,0.34
5,A78G A94G U102A A140G,0.03
6,A67G A86G U102C A118U,0.88
7,A68G A82G A89G A94G,0.43
8,U70C U87C A89U,0.69
9,A78G A89U A98U,0.25
10,A66G A82U C101A,0.04
11,U72A U87C U103C,0.11
12,U72C A82G A95G,0.12
13,U72C U102C A118G U127C,0.08
14,U72G A90G A117G U132C,0.14
15,A69U A89U U102C U130C,1.97
16,A67G A82U A135G,0.18
17,U70A U72C A110G U122A,0.02
18,U72C G99U A116G A118G A129G,0
19,A67G U108G A116U U127C,0
20,U70C C105U A117G G137A,0.12
21,A67U U127C A135G,1.84
22,A64U U72C A116U,0.07
23,U70C A78G A96G U122C,0.18
24,A69U A78G U103C A111G U122C A129U,0

row,Variant,self-cleavage
1,A67U A68G G106U,0.02
2,U70A A92G A96G,0.53
3,U72A A78G A91G U124C,0.02
4,A66G A67G U102C U108C A129G,0.02
5,G75C A92U A118U U139C,0.05
6,A67G C113U U120C A125G,0
7,A68G A96G U97A A98G,0.79
8,U72A A110G A116G U122C,0.02
9,A66G A67G A94G A95G A117G,1.18
10,A78G A94G U122C,0.06
11,A67G U87C A129G,0.48
12,U72A A91G U127C U139C,0.04
13,A68G U70C C109A,0.21
14,A67G A69G A116G,0.56
15,C77A A82G U130C,0.11
16,A68G A94G A111G A118G U127A,0.01
17,A67G U70C A116C U130C,0.03
18,A78G A91C A117U,0.07
19,A78G A117G U122A,0.08
20,A67G U120C U122G,2.36
21,A67U A86C A96G U122A U127C,0.74
22,A69G A82G A96G,0.12
23,U72C A78G A140G,0
24,A67G A89U A114U A140G,0.04

row,Variant,self-cleavage
1,A68G A96G U97C U108C,0.02
2,A67G A92G A125G,0.88
3,U72A U100G U103C,0.07
4,U72C U100C U108C,0.02
5,A66G U70C C113U A118G A125G,0
6,U72C U102C A118G A126U,0.19
7,U72G U120C A140U,0.07
8,A78G A86U A91G A117G U131C,0.13
9,A67G A110U A125G,0.64
10,A67G U87C U127C,0.7
11,A67U A68C A134G,2.08
12,A67G A68G A126G,0.98
13,A66U A78U A89G,0.31
14,U70C G75A U87C,0.26
15,A69G A78U U102G U108A,0.01
16,U70C U72A U124C,0.13
17,U70C A118G U120G,0.25
18,U72A U87C U124A,0.15
19,A69C A91U U108C,0.01
20,A67U A114G U124C,0.37
21,A68C U72C A96G,0.13
22,C77U A92U U108C G119A,0
23,A68G A86U A111U,0.23
